This note sets out measurements from patent publication US20250382268A1, “METHODS AND COMPOSITIONS FOR SELECTIVELY INHIBITING PATHOGENIC MICROBES” (priority 2019, published 2025).

The subject of the assay is B. subtilis cells.

Like-named read-outs stand apart in the source and are kept apart here.

In the case of `CC[C@H](C)[C@H](NC(=O)CN)C(=O)NCC(=O)N[C@@H](C)C(=O)N[C@H](C(=O)N[C@@H](CC(C)C)C(=O)N[C@@H](CCCCN)C(=O)N[C@H](C(=O)N[C@@H](CC(C)C)C(=O)N[C@H](C(=O)N[C@H](C(=O)NCC(=O)N[C@@H](CC(C)C)C(=O)N1CCC[C@H]1C(=O)N[C@@H](C)C(=O)N[C@@H](CC(C)C)C(=O)N[C@H](C(=O)N[C@@H](CO)C(=O)N[C@@H](Cc1c[nH]c2ccccc12)C(=O)N[C@H](C(=O)N[C@@H](CCCCN)C(=O)N[C@@H](CCCNC(=N)N)C(=O)N[C@@H](CCCCN)C(=O)N[C@@H](CCCNC(=N)N)C(=O)N[C@@H](CCC(N)=O)C(=O)N[C@@H](CCC(N)=O)C(N)=O)[C@@H](C)CC)[C@@H](C)CC)[C@@H](C)O)[C@@H](C)O)C(C)C)C(C)C` [melittin, reference compound], the “cell wall disruption by FM 4-64 dye” value (B. subtilis cells, fluorescence microscope, FIG. 1C) was “aggregation and cell wall disruption”.

For the compound `Brc1ccc2[nH]cc(Sc3ccccc3Br)c2c1` [Compound 174I, 5-bromo-3-((2-bromophenyl)thio)-1H-indole], the “cell wall disruption by FM 4-64 dye” value was “aggregation and cell wall disruption”.
